Data from PubChem BioAssay AID1159614 (National Center for Advancing Translational Sciences (NCATS), 2016).
Screen size: about 45,000 compounds; about 65 (0.1%) were called active. Calls come from the whole dose curve; as a rule, active = well fitted activation curve with a large enough effect; inconclusive = small, poorly fitted or top-dose-only effect; inactive = no such curve, though single readings can be large or run the other way. The list shows a part of the results.

Biological target: Galactocerebrosidase (Homo sapiens) (UniProt P54803)
Experiment: A Novel Cell-Based Assay to Identify Small Molecules for B -Galactocerebrosidase; note: 0% is about no effect; nearly all actives have a fitted effect of over 65% in size
Conditions: 145M-Twi-hGALC-G270D cells (Twitcher mouse brain line with human GALC G270D), HMU-beta-Gal fluorescence, 48 h; series mostly up to 57.5 µM; activation: at the top concentration
How it was run: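 Brain-derived Twitcher mouse 145M-Twi cells stably expressing human GALC-G270D or wild-type GALC, treated live, then residual GALC activity read by fluorescence of HMU-b-Gal substrate (0.1 mM final) in citrate-phosphate buffer pH 5.2 with sodium taurocholate. Signal increase indicates enhancement.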

Chain of UniProt P54803 (P54803 whole entry, looked up): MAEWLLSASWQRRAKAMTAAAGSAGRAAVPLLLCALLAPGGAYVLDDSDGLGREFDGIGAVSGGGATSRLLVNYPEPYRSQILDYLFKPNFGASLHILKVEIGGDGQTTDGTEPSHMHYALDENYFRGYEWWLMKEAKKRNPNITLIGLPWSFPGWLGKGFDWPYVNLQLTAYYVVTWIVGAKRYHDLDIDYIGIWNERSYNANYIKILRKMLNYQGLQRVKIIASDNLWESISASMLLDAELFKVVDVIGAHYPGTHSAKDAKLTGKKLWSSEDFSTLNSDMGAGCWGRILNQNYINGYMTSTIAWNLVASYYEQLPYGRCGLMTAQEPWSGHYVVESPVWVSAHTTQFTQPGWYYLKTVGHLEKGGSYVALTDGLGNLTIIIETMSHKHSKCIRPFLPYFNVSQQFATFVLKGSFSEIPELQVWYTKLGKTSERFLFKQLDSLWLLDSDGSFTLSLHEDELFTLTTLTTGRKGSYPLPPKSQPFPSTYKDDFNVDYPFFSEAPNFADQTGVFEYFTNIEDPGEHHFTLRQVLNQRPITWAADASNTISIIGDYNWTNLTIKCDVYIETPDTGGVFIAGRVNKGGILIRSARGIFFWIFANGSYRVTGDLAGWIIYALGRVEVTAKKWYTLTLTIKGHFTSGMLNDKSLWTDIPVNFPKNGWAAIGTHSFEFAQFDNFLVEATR

activation, inactive:
COc1ccc(-c2nc3scc(CCNS(=O)(=O)c4c(C)noc4C)n3n2)cc1 -5.76%, COc1ccc(N2CCN(C(=O)Cn3cnc4nc5c(cc4c3=O)CCCC5)CC2)cc1 -7.85%, Cc1ccc(S(=O)(=O)NCCc2nnc3ccc(SCc4ccccc4C)nn23)cc1 -4.45%, COc1ccc(OC)c(NC(=O)CSc2c3c(nc4ccccc24)CCCC3)c1 -12.7%, CCOC(=O)c1cccc(NC(=O)c2cc(CN3CCCC3)on2)c1 -13.3%, COc1ccc(/C=C\c2onc(C)c2S(=O)(=O)N2CCC(C(=O)Nc3ccccc3OC)CC2)cc1 -14.9%, CCc1nn(CCCC(=O)NCc2ccccc2Br)c(=O)c2cc3occc3n12 -9.23%, Cc1ccc(OC(=O)c2cc(-c3ccc4c(c3)OCCO4)on2)c(C)c1 -4.08%, COc1ccccc1OC(C)C(=O)NCC1(N2CCOCC2)CCCCC1 (stereo not drawn) 14.3%, Cc1ccc(Cn2cccc2C2=NC(C)(C)CO2)cc1 -13.7%, CC1CCN(S(=O)(=O)c2ccc3c(c2)N(CC(=O)NC(C)C)C(=O)CS3)CC1 -6.61%, Cc1ccc(OCC(=O)NCC2(N3CCN(C)CC3)CCCCC2)cc1C -11.7%, CCCCOc1ccc(-c2nonc2NC(=O)c2ccco2)cc1 -15.7%, COc1ccc(NC(=O)CCNS(=O)(=O)c2cccc3nonc23)cc1 -7.66%, CCCC(=O)N1c2ncnn2C2(CCCCC2)[C@@H]2CCCC[C@@H]21 -12.9%, COC(=O)c1scc(-c2ccc(C)cc2)c1S(=O)(=O)Nc1cccc(C(F)(F)F)c1 -11.1%, CCn1cc(C(=O)OCC(=O)Nc2cc(C)cc(C)c2)c(=O)c2ccc(C)nc21 -10.8%, COc1ccc(CCNC(=O)c2cc(-c3ccccc3)nc3ccccc23)cc1OC -29.1%, CCC(=O)N1CCc2cc(S(=O)(=O)NCCC(=O)Nc3ccc(OC)c(Cl)c3)ccc21 -12.4%, CCOc1ccc(CC(=O)Nc2nnc3n2CCS3)cc1 -7.05%, CC(C)c1nnc(N2C(=O)c3oc4ccccc4c(=O)c3C2c2cccc(O)c2)s1 (stereo not drawn) -12.9%, CCc1nnc2c(NCc3ccccc3OC)nc3ccccc3n12 0.411%, O=C(CSc1cn(CC(=O)N2CCCCCC2)c2ccccc12)Nc1ccccc1F -5.57%, O=C(CSc1nc2ccccc2c(=O)n1CCC(=O)NC1CCCCC1)Nc1ccccc1Cl -18.7%, COC(=O)c1sc2cccc(F)c2c1S(=O)(=O)Nc1cc(OC)cc(OC)c1 -20.9%, C[C@@H](O)[C@H]1C(=O)N2C(C(=O)O)=C(S[C@@H]3CN[C@H](CNS(N)(=O)=O)C3)[C@H](C)[C@H]12 -10.4%, Cc1nn(CCCC(=O)NCc2ccccc2)c(=O)c2nn(-c3ccccc3)c(C)c12 -17.4%, Cc1cc2c(cc1S(=O)(=O)N1CCC(C)CC1)OCC(=O)N2 -18.3%, O=C(COc1ccccc1)Nc1ccc(S(=O)(=O)N(Cc2ccccc2)c2ccccc2)cc1 -20.3%, Cc1c(C(=O)NCc2ccc(N(C)C)cc2)oc2c1-c1nn(Cc3cccc(Cl)c3)cc1CC2 -21.1%, COC(=O)CNC(=O)C(Cc1ccccc1)NS(=O)(=O)c1ccc2c(c1)c(=O)n(C)c(=O)n2C (stereo not drawn) -2.62%, COCCN1Cc2cccc(C(=O)Nc3ccc(C)cc3C)c2C1=O -8.84%, CCN(C(=O)C1CCN(S(=O)(=O)c2ccc3c(c2)CCCN3C(=O)C2CCC2)CC1)c1cccc(C)c1 -7.71%, Cc1ccc(NC(=O)Cn2c(=O)n(CCCCCC(=O)NCc3ccc(F)cc3)c(=O)c3sccc32)c(C)c1 0.38%, Cc1c(Cl)cccc1NC(=O)c1cnc2sc(N3CCCC3)nn2c1=O -5.05%, Cc1ccc(CNC(=O)c2ccc3c(c2)N(Cc2ccccc2F)C(=O)c2ccccc2S3(=O)=O)cc1 -14%, O=S(=O)(c1ccc2ccccc2c1)n1nc(-c2ccco2)nc1NCc1cccc(Cl)c1 -16.5%, COc1cccc(CNC(=O)c2cnc(N3CCCC3)nc2C)c1 -5.69%, COc1ccc(S(=O)(=O)c2cn(C)c3cc(N4CCCC4)c(F)cc3c2=O)cc1 -8.57%, Cc1cc(C)cc(NC(=O)Cn2c(=O)oc3cc(S(=O)(=O)N4CCCC4)ccc32)c1 -7.34%, COc1ccc(-c2nc(-c3ccccc3)c(-c3ccccc3)[nH]2)cc1Br -12.7%, Oc1c(I)cc(Cl)c2cccnc12 -9.19%, Cc1ccc(-c2nnc(SCC(=O)N3CCc4ccccc43)o2)cc1 -18%, CCCC12CN3CC(CCC)(CN(C1)C3c1c[nH]c3ccccc13)C2=O (stereo not drawn) -15.9%, CCOc1ccc(CCNC(=O)Cn2nnc(-c3ccc(OC)c(OC)c3)n2)cc1OCC -24.3%, CN1CCN(C(CNC(=O)C(=O)Nc2ccc(F)cc2F)c2ccc3c(c2)OCO3)CC1 (stereo not drawn) -11.2%, CC(C)Cn1cnc2c1c(=O)n(C)c(=O)n2C -29.2%, CC(C)Oc1ccc(CNS(=O)(=O)c2cnc(N)nc2)cc1 1.83%, CCOc1cc(CNCCSc2nnnn2-c2ccccc2)cc(Cl)c1OC -7.14%, O=C(CN1C(=O)C2(SCC(=O)N2c2ccccc2)c2ccccc21)NCc1ccccc1Cl (stereo not drawn) -25.7%, O=C(NC1CCCCC1)c1ccc2c(c1)N(Cc1ccccc1)C(=O)c1ccccc1S2 -13.3%, CSc1nc(-c2ccc(F)cc2)nc2c1Cc1c(CO)cnc(C)c1O2 -14.3%, CCCCNc1nc(Oc2ccc(=O)n(C)n2)nc(N(C)C)n1 -9.31%, CCCc1nn2c(=O)cc(COC(=O)c3ccc(NC(=O)C(C)Oc4ccccc4)cc3)nc2s1 (stereo not drawn) -6.74%, COc1cc(NC(=O)c2nnn(CC(=O)Nc3ccccc3)c2N)cc(OC)c1 -0.113%, Cc1ccc2nc(-c3ccc(NC(=O)COc4c(C)ccc(C)c4C)cc3)sc2c1 -14.7%, COc1ccccc1-c1noc(CSc2nc3ccc(C)cc3[nH]2)n1 -16.2%, O=C(CSc1cn(CC(=O)N2CCCCC2)c2ccccc12)Nc1ccccc1F -6.03%, COc1cc(NC(=O)CCS(=O)(=O)c2nc(-c3cccs3)cc(C(F)(F)F)n2)cc(OC)c1OC -22.3%, COc1ccc(C(=O)c2cn(Cc3ccc(C)cc3)c3cc4c(cc3c2=O)OCO4)cc1 -17.6%, CCOc1ccccc1NC(=O)CSc1nccn1-c1ccc(Cl)cc1 1.15%, Cc1c(Cl)cccc1NC(=O)CCn1c(=O)c2cccn2c2ccccc21 -10.5%, CC(CNC(=O)C1CCN(Cc2cc3ccccc3n2Cc2ccccc2)CC1)c1ccccc1 (stereo not drawn) -4.82%
